The results in this text go back to PMC4336329 (PLoS ONE, 2015).

The structures appear in SMILES notation. Out of some 310,000 compounds screened, about 14,000 (4.5%) showed an effect of 50% or more. Effects have a minus sign here. The list shows a part of the results.
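Further: peak tail current of the secondary pulse compared with the same well before compound.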

For this test, the target named is human ether-à-go-go-related gene (hERG) potassium channel (human, UniProt Q12809). The test can be described thus: primary screen, population patch clamp on CHO cells stably expressing hERG.
human ether-à-go-go-related gene (hERG) potassium channel, sequence (Q12809 whole entry, looked up): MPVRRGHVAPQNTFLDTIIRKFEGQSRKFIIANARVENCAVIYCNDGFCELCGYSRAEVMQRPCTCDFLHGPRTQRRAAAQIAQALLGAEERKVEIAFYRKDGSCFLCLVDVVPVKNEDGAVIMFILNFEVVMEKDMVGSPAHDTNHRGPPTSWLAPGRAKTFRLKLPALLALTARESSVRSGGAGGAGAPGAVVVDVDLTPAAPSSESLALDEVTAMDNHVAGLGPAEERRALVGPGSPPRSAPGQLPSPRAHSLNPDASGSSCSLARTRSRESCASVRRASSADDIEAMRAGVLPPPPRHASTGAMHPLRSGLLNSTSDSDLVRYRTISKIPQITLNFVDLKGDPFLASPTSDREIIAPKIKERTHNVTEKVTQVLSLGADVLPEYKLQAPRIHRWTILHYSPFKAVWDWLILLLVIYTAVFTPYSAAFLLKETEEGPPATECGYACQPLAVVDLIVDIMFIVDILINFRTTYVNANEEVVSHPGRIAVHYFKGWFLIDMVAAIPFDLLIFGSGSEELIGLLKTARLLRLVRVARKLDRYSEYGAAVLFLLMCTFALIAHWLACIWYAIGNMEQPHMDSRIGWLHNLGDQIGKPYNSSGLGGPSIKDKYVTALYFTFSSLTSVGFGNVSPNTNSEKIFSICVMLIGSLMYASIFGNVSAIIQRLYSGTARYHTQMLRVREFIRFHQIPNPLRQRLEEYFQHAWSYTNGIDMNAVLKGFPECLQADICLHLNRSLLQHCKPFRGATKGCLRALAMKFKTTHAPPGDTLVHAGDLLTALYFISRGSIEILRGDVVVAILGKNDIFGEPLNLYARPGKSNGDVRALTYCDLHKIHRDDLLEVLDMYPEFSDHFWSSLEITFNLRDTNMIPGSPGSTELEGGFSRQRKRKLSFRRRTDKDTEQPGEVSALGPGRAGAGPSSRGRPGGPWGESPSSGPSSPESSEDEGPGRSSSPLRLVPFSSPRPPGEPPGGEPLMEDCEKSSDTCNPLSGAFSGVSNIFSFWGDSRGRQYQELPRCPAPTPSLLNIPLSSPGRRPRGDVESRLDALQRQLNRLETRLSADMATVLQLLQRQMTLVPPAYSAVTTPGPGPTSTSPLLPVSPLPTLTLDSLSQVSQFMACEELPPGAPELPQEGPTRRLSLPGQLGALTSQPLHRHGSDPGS
Take `Cl.O=C(CC(Nc1ccccc1)c1ccc(F)cc1)c1ccccc1` (stereo not drawn): the “hERG current change (%, negative = inhibition) at 10uM” value is reported as -9.51%.

As for `COc1ccc(C(=O)Nc2nnc(S(=O)(=O)N(C)Cc3ccccc3)s2)cc1`, the “hERG current change (%, negative = inhibition) at 10uM” value turned out to be 7.21%. `CC(C)OCCCn1c(SCC(=O)N2CCc3ccccc32)nc2ccccc2c1=O`: the “hERG current change (%, negative = inhibition) at 10uM” value was determined as 6.61%. On to `Clc1ccccc1-c1nnc(-c2cccs2)o1`, for which the “hERG current change (%, negative = inhibition) at 10uM” value is given as 7.75%. Regarding `CNC(=O)C12N=CNN=C1N(C)C(=O)N2C` (stereo not drawn), the “hERG current change (%, negative = inhibition) at 10uM” value was 16.2%. Next, `CCCNC(=O)N1CCC(C(=O)c2cccc(F)c2)CC1`: -10.9%; `CCCCN(C(=O)/C=C/c1ccc(OC)cc1)C1CCS(=O)(=O)C1` (stereo not drawn): -41.5%. As for `CCC(C)(C)NC(=O)C(c1ccc(OC)cc1)N(C(=O)CCC(=O)Nc1cc(C)on1)c1ccc(OC)cc1OC` (stereo not drawn), the “hERG current change (%, negative = inhibition) at 10uM” value was -7.89%.

Regarding `Cc1cc(Br)ccc1NC(=O)CN1C(=S)NC(C)(C)CC1C` (stereo not drawn), the “hERG current change (%, negative = inhibition) at 10uM” value turned out to be 4.43%. As for `Cl.N=C1C(c2nc(-c3ccc(Cl)cc3)cs2)=C(O)CN1CCCN1CCOCC1`, the figure is -30.4%.

With `CC(=O)N1CCOc2ccc(S(=O)(=O)N(C)c3ccc(C)cc3)cc21`, the “hERG current change (%, negative = inhibition) at 10uM” value is listed as -13.2%. As for `CC1CCN(C(=O)CSc2nnc(Cc3cccn3C)n2CCc2ccccc2)CC1`, the figure is -18.5%. With `Cc1ccccc1-n1nc2c(c1NC(=O)CCCl)CSC2`, the “hERG current change (%, negative = inhibition) at 10uM” value is on record as -0.405%. For `COc1cc(C(=O)NC23CC4CC(CC(C4)C2)C3)cc(OC)c1OC`, the “hERG current change (%, negative = inhibition) at 10uM” value turned out to be 16.1%.

Consider `CCOC(=O)CSCc1csc(CC(=O)Nc2ccccc2C)n1`, for which the “hERG current change (%, negative = inhibition) at 10uM” value was 13.5%. Turning to `O=C(Nc1cccc(S(=O)(=O)N2CCCCC2)c1)c1ccc2c(=O)n3c(nc2c1)CCCCC3`, the “hERG current change (%, negative = inhibition) at 10uM” value was -64.5%.

With `COc1ccc(NC(=S)NCCNC(C)=O)cc1`, the “hERG current change (%, negative = inhibition) at 10uM” value is on record as 26.8%. With `Nc1nc(SCc2ccc3c(c2)OCO3)n[nH]1`, the “hERG current change (%, negative = inhibition) at 10uM” value was 9.57%.

`Fc1ccc(-c2nc3ccncc3[nH]2)cc1`: the “hERG current change (%, negative = inhibition) at 10uM” value is -0.189%.

Consider `O=C(COc1cccnc1[N+](=O)[O-])NCCc1ccc(Cl)cc1Cl`, for which the “hERG current change (%, negative = inhibition) at 10uM” value is -18.4%. Next, `O=C(Nc1ccc2nc3n(c(=O)c2c1)CCCC3)c1ccccc1F`: -38.6%; `Cc1ccc(NC(=O)CN2C(=O)S/C(=C\c3cccn3-c3cccc(C(=O)O)c3)C2=O)c(C)c1`: 16.3%.

On to `FC(F)Oc1ccc(NC(=S)NCc2nc3ccccc3[nH]2)cc1`, for which the “hERG current change (%, negative = inhibition) at 10uM” value is -79.2%. Next, `CC(C)Cc1ccc(CN2CCC(n3nccc3NC(=O)C3CCCC3)CC2)cc1`: -72.4%; `CCCCn1c(N)c(N(CC(C)C)C(=O)CC2CCCCC2)c(=O)[nH]c1=O`: -9.22%.

Regarding `O=C(O)C1Cc2[nH]cnc2C(c2ccc(F)cc2)N1` (stereo not drawn), the “hERG current change (%, negative = inhibition) at 10uM” value was determined as 4.22%. As to `O=C(COC(=O)c1ccccc1)Nc1cccc(S(=O)(=O)N2CCOCC2)c1`, the “hERG current change (%, negative = inhibition) at 10uM” value is -26.5%.

Turning to `Cc1nnc(SCc2ccccc2)n(N)c1=O`, the “hERG current change (%, negative = inhibition) at 10uM” value is given as -4.28%. Next, `CN(C)CCCNC(=O)C1CCNCC1`: 14%; `Fc1ccc(Oc2nnnn2-c2ccccc2)cc1`: 44.8%; `CN1CC2([N+](=O)[O-])CC=C(OCCO)C([N+](=O)[O-])(C1)C2` (stereo not drawn): 16.3%. Next, `CCCCN(C(=O)CSCC(=O)Nc1cccc(C)c1)c1c(N)n(Cc2ccccc2)c(=O)[nH]c1=O`: -10.9%; `O=c1[nH]c(/C=C/c2ccc(Cl)cc2Cl)c([N+](=O)[O-])c(=O)[nH]1`: 8.89%; `COc1ccc(NC(=O)CC2Nc3ccccc3NC2=O)c([N+](=O)[O-])c1` (stereo not drawn): -6.07%.

Consider `O=c1c2cc(NC(=S)NCc3cccnc3)ccc2nc2n1CCCCC2`, for which the “hERG current change (%, negative = inhibition) at 10uM” value was -10.1%. As for `CCCN(CC(=O)Nc1ccccc1C)C(=O)/C=C/c1cccs1`, the figure is -13.6%. For `Cc1ccc(-c2nn3c(-c4ccco4)nnc3c3ccccc23)cc1S(=O)(=O)NCC1CCCO1` (stereo not drawn), the “hERG current change (%, negative = inhibition) at 10uM” value is given as -16%. For the compound `Cn1ccc(C(=O)N/N=C/c2cccnc2)n1`, the “hERG current change (%, negative = inhibition) at 10uM” value was 28.6%. As for `CCC(C)NC(=O)CSc1nc2ccccc2c(=O)n1CCCC(=O)NCC1CCCO1` (stereo not drawn), the figure is -2.9%. As to `COCCOC(=O)c1c(C)oc2ccc(NS(=O)(=O)c3ccc(C(=O)O)cc3)cc12`, the “hERG current change (%, negative = inhibition) at 10uM” value worked out at 10.6%.

With `COc1cccc(OCC(O)CNC(=O)c2oc3c(C)c(C)ccc3c2C)c1` (stereo not drawn), the “hERG current change (%, negative = inhibition) at 10uM” value was determined as 7.14%.

Regarding `Cc1cccc(N(CC(=O)N/N=C/c2ccccc2C(=O)O)S(C)(=O)=O)c1C`, the “hERG current change (%, negative = inhibition) at 10uM” value is given as -28.9%. Next, `COc1ccc(NC(=S)N/N=C2/CCCc3c(C)cc(C)cc32)cc1`: 3.99%; `CCCCOc1ccc(N(CC(=O)NC2CCCCC2)C(=O)CCC(=O)Nc2ccccn2)cc1`: 10.5%; `COc1ccc2[nH]c3c(=O)n(N)c(=O)[nH]c3c2c1`: 10.8%. Consider `CCOc1ncccc1C(=O)OCC(=O)c1ccc[nH]1`, for which the “hERG current change (%, negative = inhibition) at 10uM” value worked out at 11.3%.

For `COc1ccc(CN2CCCC(C(=O)c3cccc(Cl)c3)C2)cc1` (stereo not drawn), the “hERG current change (%, negative = inhibition) at 10uM” value was -57.4%. As for `Cc1cc(C)c(C#N)c(N2CCCC(C(N)=O)C2)n1` (stereo not drawn), the figure is -9.2%; as for `COc1ccc2c(Cl)c(C(=O)N/N=C/c3ccc4c(c3)OCO4)sc2c1`, 19.5%. Next, `C=CCSc1nnc(NC(=O)COc2ccc3ccccc3c2)s1`: 11.8%.

`CCn1nc(C(=O)NCC(c2cccs2)N2CCOCC2)c2ccccc2c1=O` (stereo not drawn): the “hERG current change (%, negative = inhibition) at 10uM” value is -12.3%. Next, `COC1CCN(C(=O)c2ccc3oc(Cc4ccc(Cl)cc4)nc3c2)CC1`: -9.5%; `CCC(Sc1nc(N)c(NC(=O)c2ccc(OC)cc2)c(=O)[nH]1)C(=O)O` (stereo not drawn): 1.73%; `COc1ccc(N(CC(=O)Nc2cccc(C)c2C)S(=O)(=O)c2c(C)n[nH]c2C)cc1`: -12.5%. Next, `Oc1ccccc1OCC(O)c1ccccc1` (stereo not drawn): 22.8%. As for `N#Cc1ccc(C(=O)NC23CC4CC(CC(C4)C2)C3)cc1`, the figure is -6.7%; as for `COc1ccc(/C=C2/SC(=O)N(NS(=O)(=O)c3ccccc3)C2=S)cc1OC`, 0.364%.
